# Laboratory results reported in article PMC4336329 (PLoS ONE, 2015).
# Hit rate of the full screen: of about 310,000 compounds, about 2,200 (0.71%) showed an effect of 50% or more. Effects have a minus sign here. This is one part of the list.
# Biological target: human ether-à-go-go-related gene (hERG) potassium channel (human, UniProt Q12809)
# Test: primary screen, population patch clamp on CHO cells stably expressing hERG
# human ether-à-go-go-related gene (hERG) potassium channel, sequence (Q12809 whole entry, looked up): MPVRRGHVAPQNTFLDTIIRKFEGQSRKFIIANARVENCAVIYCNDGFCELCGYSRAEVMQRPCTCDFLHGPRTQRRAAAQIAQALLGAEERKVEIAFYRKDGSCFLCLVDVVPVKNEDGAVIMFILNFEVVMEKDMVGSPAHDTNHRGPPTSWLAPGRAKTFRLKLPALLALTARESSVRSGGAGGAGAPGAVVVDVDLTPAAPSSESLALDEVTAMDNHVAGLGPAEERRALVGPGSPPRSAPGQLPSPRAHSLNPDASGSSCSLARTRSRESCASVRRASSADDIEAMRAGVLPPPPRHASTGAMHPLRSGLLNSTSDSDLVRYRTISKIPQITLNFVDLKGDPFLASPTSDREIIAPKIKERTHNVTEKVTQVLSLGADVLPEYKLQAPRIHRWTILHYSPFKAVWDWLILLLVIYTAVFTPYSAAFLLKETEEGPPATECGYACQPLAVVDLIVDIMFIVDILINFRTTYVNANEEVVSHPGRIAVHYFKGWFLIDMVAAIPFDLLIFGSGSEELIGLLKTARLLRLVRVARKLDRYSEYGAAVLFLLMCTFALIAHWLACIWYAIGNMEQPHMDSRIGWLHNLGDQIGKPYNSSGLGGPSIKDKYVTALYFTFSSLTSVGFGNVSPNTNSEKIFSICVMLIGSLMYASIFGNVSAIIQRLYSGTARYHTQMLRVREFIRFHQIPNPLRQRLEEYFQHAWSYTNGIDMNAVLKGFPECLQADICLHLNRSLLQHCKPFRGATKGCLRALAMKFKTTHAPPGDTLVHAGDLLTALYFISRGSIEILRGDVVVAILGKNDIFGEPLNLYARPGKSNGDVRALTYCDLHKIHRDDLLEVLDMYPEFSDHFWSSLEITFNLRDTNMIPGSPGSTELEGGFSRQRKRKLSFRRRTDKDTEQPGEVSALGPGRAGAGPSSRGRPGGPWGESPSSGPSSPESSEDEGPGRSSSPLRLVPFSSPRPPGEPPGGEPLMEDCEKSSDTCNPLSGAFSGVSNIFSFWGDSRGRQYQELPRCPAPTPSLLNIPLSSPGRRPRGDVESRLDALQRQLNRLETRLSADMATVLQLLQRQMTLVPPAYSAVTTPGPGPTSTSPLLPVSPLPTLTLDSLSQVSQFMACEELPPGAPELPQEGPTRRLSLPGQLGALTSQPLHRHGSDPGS
row,Compound,"hERG current change (%, negative = inhibition) at 1uM"
1,O=C(NNC(=O)c1ccc(Br)s1)c1ccc(F)c(S(=O)(=O)N2CCOCC2)c1,0.537%
2,O=C1C(=O)N(CCCN2CCOCC2)C(c2ccc(Cl)cc2)/C1=C(\O)c1ccc2c(c1)OCCO2 (stereo not shown),10.2%
3,COc1ccccc1CNS(=O)(=O)c1cc(-c2cc(C)no2)ccc1C(C)C,11.8%
4,CC(=O)c1nnn(-c2nc(N)nc(N(c3ccccc3)c3ccccc3)n2)c1C,6.79%
5,C#CCn1c(C)cc(C)c(S(=O)(=O)c2ccccc2)c1=O,9.06%
6,O=C(CN(Cc1ccco1)C(=O)c1ccc(F)cc1F)Nc1ccccc1C(F)(F)F,3.35%
7,O=C(Nc1ccccc1)n1cc(-c2ccccn2)c(N2CCOCC2)n1,8.12%
8,COc1cccc(C(=O)NC2CC(C)(C)NC(C)(C)C2)c1OC,5.4%
9,Cn1nc(C(=O)OCC(=O)Nc2ccccc2[N+](=O)[O-])c2ccccc2c1=O,0.155%
10,Cc1cc(NC(=O)CCCn2cc([N+](=O)[O-])cn2)n(Cc2ccc(F)cc2)n1,5.14%
11,CC1CCN(C(=O)C2CCN(S(=O)(=O)c3cccc4nsnc34)CC2)CC1,3.13%
12,Cc1ccc(S(=O)(=O)NCC(=O)NCCc2c[nH]c3ccccc23)cc1C,7.54%
13,O=C(CCNC(=O)c1ccc(Cl)cc1)NC1CCCCCC1,-8.08%
14,CCOC(=O)C1CCCN(CC(=O)Nc2nccs2)C1 (stereo not shown),4.09%
15,NC(=O)CSc1nc2cccnc2n1-c1ccc(F)cc1,12.2%
16,CC1Cc2ccccc2N1C(=O)CSc1nnc2sc3ccccc3n12 (stereo not shown),11.9%
17,Cc1c([N+](=O)[O-])c(C(=O)N2CCCC2)nn1C,3.86%
18,COc1ccc(N(C(C)C(=O)NCCSCc2cccc(Cl)c2)S(C)(=O)=O)cc1 (stereo not shown),7.92%
19,CN(CCOc1ccccc1)C(=O)c1ccc(Cl)c(S(=O)(=O)N2CCCCC2)c1,-15.9%
20,Cc1cccc2c(=O)cc(C)n(CC(=O)N3CCCCC3)c12,9.18%
21,COc1cccc(C(=O)N2CCC(N3CC(C)OC(C)C3)CC2)c1.O=C(O)C(=O)O (stereo not shown),12.9%
22,O=C(Nc1ccc(F)cc1)N1CCCN(c2ccc(C(F)(F)F)cn2)CC1,-2.54%

row,Compound,"hERG current change (%, negative = inhibition) at 1uM"
1,CN1CCN(C(=O)c2cc3nc(-c4ccccc4)cc(-c4ccccc4)n3n2)CC1,0.764%
2,O=c1c(OC2OC(CO)C(O)C(O)C2O)c(-c2ccc(O)c(O)c2)oc2cc(O)cc(O)c12 (stereo not shown),19.6%
3,COc1ccc(N2CCN(Cc3cc(=O)c(OCC(=O)Nc4ccccc4)co3)CC2)cc1,6.56%
4,N#C/C(=N\Nc1ccc(S(=O)(=O)N2CCc3ccccc32)cc1)C(N)=S,17.6%
5,Cc1c(O)c(=O)c2ccccc2n1C,16%
6,COC(=O)C1=C(Nc2ccc(C)cc2)C=C(C)C(C(=O)OC)C1c1ccc(F)cc1 (stereo not shown),12.6%
7,Cc1ccc(-c2nnc(-c3ccc(NC(=O)c4cccs4)cc3)o2)cc1,4.62%
8,Cc1ccc(CNC(=O)C2CC(=O)N(C3CCCC3)C2)cc1 (stereo not shown),8.91%
9,CC(C)C(=O)Nc1ccc(N2CCN(C(=O)c3cccs3)CC2)cc1,3.3%
10,COc1ccc(C(=O)NNC2CC(=O)N(Cc3ccc(Cl)cc3)C2=O)cc1OC (stereo not shown),9.19%
11,COc1ccc2nc(NC(=O)CN3CCN(C)CC3)sc2c1.Cl,-3.94%
12,COc1cc(CNC2CCC(C)C2)cc(OC)c1 (stereo not shown),12.3%
13,Cc1ccc2cc3cc(C(=O)NCCC(C)C)oc3nc2c1,10.1%
14,COc1ccc(C(C)NS(=O)(=O)Cc2ccccc2)cc1 (stereo not shown),12.9%
15,CC(C)C[C@@H](CO)N1CCN(C)CCC1=O,1.94%
16,CN(C)CCCNS(=O)(=O)c1cc(Cl)ccc1Cl,14.2%
17,CC(C)(C)NC(=O)CN(Cc1ccco1)C(=O)CCC(=O)Nc1nccs1,12.2%
18,CN(C)c1ccc(NC(=S)N2CCN(c3ncc(C(F)(F)F)cc3Cl)CC2)cc1,11.4%
19,O=C(CCCN1C(=O)c2ccccc2C1=O)Nc1cccnc1,2.91%
20,C=CC[n+]1ccc2ccccc2c1C.[Cl-],15.7%
21,COc1ccc(N2CCN(C(CNC(=O)C(C)(C)C)c3cccnc3)CC2)cc1 (stereo not shown),-16%
22,CCOc1ccc(NC(=O)NNC(=O)c2ccc3ccccc3c2O)cc1,9.28%

row,Compound,"hERG current change (%, negative = inhibition) at 1uM"
1,Cn1c(=O)c(=O)n(C)c2cc(S(=O)(=O)NCCN3CCN(c4ccccc4F)CC3)ccc21,13%
2,COc1cc(CCC(=O)Nc2ccc(Br)c(C(F)(F)F)c2)cc(OC)c1OC,10.8%
3,CCN(CC(=O)NCc1cccs1)C(=O)c1ccc(S(=O)(=O)Nc2cccc(C)c2C)cc1,-12.6%
4,Cc1ccc(NC(=O)c2cc(C)n(-c3cccc(C)c3)c2C)cc1,9.98%
5,COc1ccc(S(=O)(=O)n2cnc3ccccc32)c(C)c1,13.1%
6,COc1ccccc1C(=O)NC(=O)Nc1nc(-c2ccccc2)cc(C(F)(F)F)n1,12.8%
7,O=C(CSc1nnc(Nc2ccccc2F)s1)NC1CC1,9.4%
8,COc1c2ccccc2nc2ccccc12,12.9%
9,COc1cc(OC)cc(-c2nnc(NC(=O)CCS(=O)(=O)c3ccccc3)o2)c1,-14.8%
10,CCOC(=O)c1ccc(N(C(=O)CNC(=O)c2ccco2)C(C(=O)NCC2CCCO2)c2ccc(OC)c(OC)c2)cc1 (stereo not shown),13.8%
11,O=C(NC(=S)Nc1ccc2oc(=O)ccc2c1)c1ccc(-c2cccc(Cl)c2Cl)o1,3.73%
12,COc1ccc(S(=O)(=O)Nc2ccccn2)cc1,14.5%
13,O=Cc1ccc(-c2cccc(C(=O)O)c2)o1,15.7%
14,COc1ccc(CCN(C)CC(=O)Nc2c(C)cc(C)cc2C)cc1OC.Cl,14.4%
15,Cc1nnc(NC(=O)c2ccccc2Br)s1,8.45%
16,COc1ccc(Cc2nnc(SCC(=O)N(C)c3ccccc3)o2)cc1,11.6%
17,O=C(CCCC(=O)NCCc1ccccc1)NCCc1ccccc1,12.1%
18,NCCNC(=O)c1c(NC(=O)c2ccccc2)sc2c1CCCC2,10.9%
19,CCOc1ccc(C2c3[nH]c4ccccc4c3CCN2CCCn2cccn2)cc1 (stereo not shown),-25.7%
20,COC(=O)C1C(=O)c2c([nH]c(C(=O)OCC3CCCO3)c2C)CC1C (stereo not shown),8.21%
21,CCN(CC)c1ccc(NC(=O)CCNS(=O)(=O)c2ccc3c(c2)CCC(=O)N3)c(C)c1,11.8%
22,COc1cc(CNCCO)ccc1OCC(=O)Nc1ccc(Br)cc1,-5.48%

row,Compound,"hERG current change (%, negative = inhibition) at 1uM"
1,O=C(c1ccccc1)c1nc2ccccc2n(CCCn2c(=O)c(C(=O)c3ccccc3)nc3ccccc32)c1=O,-12.4%
2,Cc1ccc(CNS(=O)(=O)c2cn(C)c(=O)n(C)c2=O)cc1,-1.66%
3,CC1(C(=O)N(Cc2ccccc2)Cc2ccccc2)CC1(Br)Br (stereo not shown),6.77%
4,c1ccc(CNc2nc(-c3cccnc3)cs2)cc1,-5.72%
5,OCCC1CN(Cc2nc3ccccc3[nH]2)CCN1C1CCCC1 (stereo not shown),13.8%
6,Cn1nnnc1SCC(=O)Nc1ccc(Cl)c(S(=O)(=O)N2CCOCC2)c1,8.74%
7,Cc1ccc(C)c2[nH]c(=O)c(CCNC(=O)CCc3ccccc3)cc12,11.9%
8,Cc1nc(N)nc(C)c1Cc1ccccc1,9.3%
9,Cc1ccccc1Cn1cnc2ccccc2c1=O,-3.15%
10,CN1CCN(c2ccc(NC(=O)c3ccc(Br)o3)cc2)CC1,16.2%
11,NNc1nc2cccnc2n(CCNc2ncc(C(F)(F)F)cc2Cl)c1=O,14.2%
12,CCOC(=O)C(NCc1ccccn1)(NC(=O)c1cccnc1)C(F)(F)F (stereo not shown),1.35%
13,COc1cccc(C2C(C#N)=C(N)OC3=C2C(=O)CCC3)c1OC(=O)c1ccco1 (stereo not shown),6.66%
14,Fc1cccc(CNc2ncnc3ccc(-c4ccc5c(c4)OCO5)cc23)c1,5.14%
15,CC(=O)c1cccc(NC(=S)N2CCN(c3ccccn3)CC2)c1,7.51%
16,Cc1cccc(-c2noc(CCCC(=O)NCC3CCCO3)n2)c1 (stereo not shown),12.4%
17,COc1ccc(OC(=O)c2ccc(Cl)cc2)c(C(C)=O)c1,11.6%
18,N=C1C(c2ccccc2)=C(O)CN1c1cccc(S(=O)(=O)NCc2ccco2)c1,2.3%
19,CCOC(=O)c1c(CNCCN(CC)CC)n(C)c2cc(Br)c(OC)cc12.Cl,-49.8%
20,CC(=O)Nc1ccc(S(=O)(=O)NCCc2ccc(F)cc2)cc1,11%
21,COc1ccccc1CNCC(=O)NCc1ccc(C)cc1.O=C(O)C(=O)O,-4.25%
22,COc1ccc(/C=C2\C(=O)ON=C2c2ccccc2)cc1,12.7%
